In patent US9234178B2, “Differentiation of human pluripotent stem cells” (Janssen Biotech, Inc., priority 2008, dated 2016):
Read-outs that look alike come from different tables or passages of the source.

Key:
[1] = tested on: cells expressing markers characteristic of the pancreatic endocrine lineage; assay: Effect of six cyclin dependent kinase inhibitors on insulin, glucagon, MAFA and ARX4 expression, real-time PCR (Example 8); type: cell-based, human; conditions: for Arx4 expression, fold change relative to vehicle treated control / Glucagon expression, fold change relative to vehicle treated control / Insulin expression, fold change relative to vehicle treated control / MAFA expression, fold change relative to vehicle treated control: four days; for insulin expression (in words): at the concentrations tested; for MAFA expression (in words): at the concentrations tested (0.6125, 1.25, 5.0 μM)
Method: We tested 6 inhibitors: PubChem ID#5330812 (EMD cat#217714), PubChem ID#4566 (EMD cat#217713), PubChem ID#5330797 (EMD cat#219476), PubChem ID#73292 (EMD cat#341251), PubChem ID#4592 (EMD cat#495620), and PubChem ID#160355 (EMD cat #557360). […] All samples were treated in duplicate. […] Results are expressed as the fold change relative to the vehicle treated control, as measured by real-time PCR.

[2] = tested on: cells expressing markers characteristic of the pancreatic endocrine lineage; assay: Screening of BIOMOL Kinase Inhibitor Library, real-time PCR (Example 7); conditions: for Ratio vs. Control: Insulin to Glucagon / Ratio vs. Control: MAFA to Arx4: 4 μM, six days; for fold induction at 4 µM: Homo sapiens, 144 h
[3] = read-out: Ratio vs. Control: Insulin to Glucagon
[4] = read-out: Ratio vs. Control: MAFA to Arx4

SMILES | Arx4 expression, fold change relative to vehicle treated control ([1]; 0.61 μM) [fold] | Glucagon expression, fold change relative to vehicle treated control ([1]; 0.61 μM) [fold] | Insulin expression, fold change relative to vehicle treated control ([1]; 0.61 μM) [fold] | MAFA expression, fold change relative to vehicle treated control ([1]; 0.61 μM) [fold] | Arx4 expression, fold change relative to vehicle treated control ([1]; 1.25 μM) [fold] | Glucagon expression, fold change relative to vehicle treated control ([1]; 1.25 μM) [fold] | Insulin expression, fold change relative to vehicle treated control ([1]; 1.25 μM) [fold] | MAFA expression, fold change relative to vehicle treated control ([1]; 1.25 μM) [fold] | Arx4 expression, fold change relative to vehicle treated control ([1]; 5.0 μM) [fold] | Glucagon expression, fold change relative to vehicle treated control ([1]; 5.0 μM) [fold] | Insulin expression, fold change relative to vehicle treated control ([1]; 5.0 μM) [fold] | MAFA expression, fold change relative to vehicle treated control ([1]; 5.0 μM) [fold] | Ratio vs. Control: Insulin to Glucagon [2] | Ratio vs. Control: MAFA to Arx4 [2] | further results
Cn1cnc2c(NCc3ccccc3)nc(NCCO)nc21 [Well 4592] | 0.61 | 0.81 | 0.9 | 0.9 | 0.54 | 0.70 | 1.0 | 1.0 | 0.77 | 1.08 | 1.3 | 0.6 |  |  | insulin expression (in words) [1]: appeared to stimulate insulin expression; MAFA expression (in words) [1]: did not stimulate MAFA
COc1ccc(S(=O)(=O)N(CCO)c2ccccc2CN(C)C/C=C/c2ccc(Cl)cc2)cc1 [Well E5, KN-93] |  |  |  |  |  |  |  |  |  |  |  |  | 1.3 | 1.1 | 
N#CC(C#N)=C(N)/C(C#N)=C/c1cc(O)c(O)c(O)c1 [Well C3, Tyrphostin 51] |  |  |  |  |  |  |  |  |  |  |  |  | 1.3 | 0.9 | 
NS(=O)(=O)c1ccc(Nc2nc(OCC3CCCCC3)c3[nH]cnc3n2)cc1 [Well 4566] | 0.78 | 0.77 | 1.0 | 1.0 | 0.78 | 0.90 | 1.1 | 0.8 | 0.69 | 0.96 | 1.1 | 1.0 |  |  | insulin expression (in words) [1]: appeared to stimulate insulin expression
COc1cc(/C=C(\C#N)C(N)=O)cc(CSc2nc3ccccc3s2)c1O [Well B8, AG-825] |  |  |  |  |  |  |  |  |  |  |  |  | 1.6 | 0.5 | 
Oc1ccc(-c2nc(-c3ccncc3)c(-c3ccc(F)cc3)[nH]2)cc1 [Well F3, SB-202190] |  |  |  |  |  |  |  |  |  |  |  |  |  |  | fold induction at 4 µM [2, 3]: 2.6; fold induction at 4 µM [2, 4]: 2.5
Nc1nc(Nc2ccc(S(N)(=O)=O)cc2)nn1C(=S)Nc1c(F)cccc1F [Well 5330812] | 0.68 | 0.26 | 0.9 | 46.3 | 0.66 | 0.31 | 1.3 | 209.2 | 0.92 | 4.71 | 66.3 | 2909.9 |  |  | insulin expression (in words) [1]: appeared to stimulate insulin expression; MAFA expression (in words) [1]: stimulated MAFA expression
O=c1cc(-c2ccc(O)cc2)oc2cc(O)cc(O)c12 [Well H6, Apigenin] |  |  |  |  |  |  |  |  |  |  |  |  |  |  | fold induction at 4 µM [2, 3]: 1.4; fold induction at 4 µM [2, 4]: 2.9
CN(C)CCCn1cc(C2=C(c3c[nH]c4ccccc34)C(=O)NC2=O)c2ccccc21 [Well D7, GF 109203X] |  |  |  |  |  |  |  |  |  |  |  |  | 1.7 | 0.6 | 
O=c1c(-c2ccc(O)cc2)coc2cc(O)ccc12 [Well F12, Daidzein] |  |  |  |  |  |  |  |  |  |  |  |  |  |  | fold induction at 4 µM [2, 3]: 1; fold induction at 4 µM [2, 4]: 1.4
CN(C)c1ccc(C=C2C(=O)Nc3ccccc32)cc1 [Well F6, SU 4312] |  |  |  |  |  |  |  |  |  |  |  |  | 1.6 | 1.2 | 
CC[C@H](CO)Nc1nc(NCc2ccccc2)c2ncn(C(C)C)c2n1 [Well 160355] | 0.77 | 0.76 | 0.9 | 0.9 | 0.65 | 0.61 | 1.0 | 0.7 | 0.86 | 0.59 | 1.1 | 0.8 |  |  | insulin expression (in words) [1]: appeared to stimulate insulin expression; MAFA expression (in words) [1]: did not stimulate MAFA
Cc1ccc(-c2nn(C(C)(C)C)c3ncnc(N)c23)cc1 [Well C12, PP1] |  |  |  |  |  |  |  |  |  |  |  |  | 1.0 | 0.4 | 
C=CC(=O)c1ccc2ccccc2c1 [Well G4, ZM 449829] |  |  |  |  |  |  |  |  |  |  |  |  | 1.3 | 1.6 | 
N#CC(C#N)=Cc1cc(O)c(O)c([N+](=O)[O-])c1 [Well C5, Tyrphostin AG 1288] |  |  |  |  |  |  |  |  |  |  |  |  | 1.0 | 1.1 | 
O=C1c2ccccc2-[n+]2ccc3c([nH]c4ccccc43)c21.[Cl-] [Well 73292] | 0.38 | 0.29 | 0.7 | 0.7 | 0.42 | 0.25 | 1.0 | 1.3 | 0.33 | 0.13 | 0.8 | 3.1 |  |  | MAFA expression (in words) [1]: stimulated MAFA expression
